# The supplement of paper PMC10126150
# Sequences with one replicate were seen in a single cluster, so their values are uncertain.
# System: ATP
# Experiment: switch fluorescence ratio, 500 uM ATP over buffer (Cy3 cluster intensity, sum of 5 cycles each) (fold (ratio)); higher = stronger signal-on switching upon ATP binding; sequences stand for … in TCGTCGGCAGCGTCAGATGTGTATAAGAGACAGTTTTTTTTTTTTTTTTTTTTTTTTT…TC
# Details: aptamer strand: ATP DNA aptamer (quencher-CACCTGGGGGAGTATTGCGGAGGAAGG + anchor), 100 nM annealed; ATP concentration: 500 uM; one replicate
# Method in brief: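 Imaging in selection buffer was followed by imaging after 15 min with 500 uM ATP at 22 °C, for Cy3-labelled switching-strand clusters annealed to 100 nM quencher-labelled ATP aptamer on a modified Illumina MiSeq flow-cell. Five of these buffer/ATP cycles ran, separated by NaOH stripping and re-annealing. The fluorescence ratio per cluster is summed target-cycle over summed buffer-cycle Cy3 intensity, averaged per switch-domain sequence; clusters outside 100-1000 RFU were removed.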
# 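Note: ATP exposure 15 min at 22 °C before imaging.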
row,Sequence,switch fluorescence ratio
1,CAAGGCTCCA,1.1
2,ATTGTTGCTT,0.956
3,TTTTTCATAC,0.991
4,ACGGATAGCC,1.01
5,GTAGGCTTGA,1.03
6,ACTATCTCCG,1.36
7,ATGGGCGTGT,1.03
8,TTCGGATTAA,0.963
9,CGCACGTATC,1.04
10,CCATTGAGTA,0.966
11,AAGTGAGAG,1
12,AGACGTGTTC,1.01
13,ATGTAATTGC,1.04
14,GCTAGCTACA,1.02
15,CCATTCTGGT,0.967
16,GTCACTCTGG,1.01
17,ATGTTTTGTC,1.09
18,AGGGTCCGCT,1.05
19,ACTTAGAGTG,1.06
20,TAGGCCACGT,1
21,AGGCAGTTTG,0.982
22,AGCATCCACT,1.11
23,GTTAGGGCCA,1.01
24,AATTGACAC,1.04
25,CTTCTGTGA,1.02
26,CACTAGGGGC,1.15

row,Sequence,switch fluorescence ratio
1,ATTAGACCAA,1.01
2,GGTGGGCGT,0.924
3,AGACACCCC,1.41
4,TATAAATACG,1
5,AGAATGGGAT,1.06
6,TCGCCTCAGC,2.26
7,ACCTGCAGTT,1.06
8,AAAGCTAAGC,1.02
9,AGCAAAAGTT,1.01
10,GGGCGGCAGT,0.977
11,GATCCGAACG,1.38
12,GATAGTACAA,1.02
13,GCGACATTCT,1
14,TGCTATCAGG,1.06
15,AGCCTTCTTT,1.08
16,CGGGAAGATA,1.07
17,TATTACGTA,1.2
18,AGGCTAGGTG,1.42
19,GCCTTCTTTT,0.973
20,CCAATTGAGA,0.979
21,TTACGATGTA,1.03
22,AGGGATATCA,1
23,CCATGGAACG,0.992
24,GAAATAGTT,0.973
25,CATATGGGTT,1.04
26,TCCATAAAAG,1

row,Sequence,switch fluorescence ratio
1,TAGTGCAGCA,0.984
2,CATTTTTCCC,0.977
3,GAGTAATAAG,0.99
4,GTTGCTATCG,0.984
5,TTCTTCCTGG,1.04
6,GTAAACGTTG,0.962
7,TGAGACCAAC,1.11
8,GGACCTCCCA,1.11
9,CCGTCCTCGC,1.85
10,TGTCATTAG,1.02
11,TACAAGGCTC,1.21
12,TGCGTTCAAT,1.05
13,GCATAAGCCT,1.08
14,GTCGGATTTC,0.994
15,TACGTTCTAA,0.945
16,AATTCCGCAT,3.76
17,TTGGCTCGAG,1.09
18,ATTACGGGGC,1.03
19,ACCAGGGG,1.39
20,GCAGTCATGG,0.988
21,ATGGCTTA,0.989
22,TAAGACTGTA,0.909
23,TCCTATTCTA,1.01
24,TGTAGTTAAT,0.966
25,GCATTGGTTG,1.02
26,AGTGGAACCT,1.56

row,Sequence,switch fluorescence ratio
1,ACGGGCCTGG,0.982
2,TGATCTAATG,1.01
3,CTTACTACGA,1.41
4,TTATGGGGGC,0.974
5,GAGGGAATTG,1.03
6,CGGCCCGAGC,1.01
7,GTATGACACT,1.03
8,TCGAATTCAG,1.01
9,CCCACTCCTC,1.17
10,TTGGTTAGTC,0.986
11,CCCCGGGGGA,1.05
12,TACCCAGAA,1
13,AGCGAATTTC,1.85
14,TCAACAGGGC,1.05
15,TGTTGGGCTA,1.07
16,GAAAGATTTT,1.07
17,GGAAGGCCCG,0.974
18,CGCCAGTATG,1.02
19,GGTGTTGTGT,0.992
20,ATTCAATCCG,1.09
21,GGAGGTACTC,0.981
22,GGGGAGATG,1.02
23,GTATGTGGA,0.968
24,AGGAGGGCCT,0.942
25,AGAATGCGAA,0.975
26,TGTTTTCCGG,0.98

row,Sequence,switch fluorescence ratio
1,CATTATAAAA,1.03
2,GAGGGCTTCT,1
3,CCATCGAATT,1.07
4,GGTCAGAAT,1
5,AGGCTTCAAG,1.04
6,AGTGCAGTCG,1.01
7,AATGTTTCGT,1
8,ATGGAAGAGT,0.969
9,GAGTACTGAT,1.02
10,CGCATTCTTG,1.09
11,GAGGGAATGA,1.08
12,TGCGCAAATA,1.16
13,GTGCGTTGTG,0.986
14,CCTATGACTG,0.981
15,TCAGTGCTTC,1.03
16,CCGCACCTGT,1.78
17,GCGCTACCTG,0.996
18,TAGGCTGGAC,1.02
19,AGGTCAAACC,1.24
20,CGTTGACTTT,0.975
21,CAATATGAGC,0.988
22,TTTGTCATTA,1.02
23,GCTGTAGTAC,1.27
24,TATGAGAGT,0.997
25,ATGTATACGT,0.971
26,GACGTCCCCT,1.02

row,Sequence,switch fluorescence ratio
1,TTAGTTGAC,1.03
2,ACCGGTCTTT,0.998
3,GAGGTTTATT,1.02
4,ACCTCGGATT,0.97
5,ATTGTAAATG,1.03
6,TGCCGGGGTA,0.961
7,ATAAAAATTC,1.01
8,GGATCGTCTA,0.988
9,GGGGACTTG,1.01
10,GGGACAA,1.01
11,TCATTGCGG,0.998
12,CGACACGGC,1.11
13,GCTGTGCTA,0.985
14,ACACGGACCT,1.55
15,TCACACGTTA,1.23
16,GGTCGTTCGA,1
17,GACTTATTAA,1.03
18,ATGCCGCACC,1.32
19,GCCACATGA,1
20,TTCAGTTGTT,1.02
21,TGGTGGGCGC,1.03
22,AGGGTCCCTC,1.01
23,TCCGGTACCG,1.01
24,TCCAACTCGC,1.11
25,CGAATAAGC,1.01
26,AAGGGCAATA,2.08

row,Sequence,switch fluorescence ratio
1,GTTGGGTCG,1.03
2,TTCTGGTGGC,0.989
3,AAGTATGCC,1.18
4,CAAAGAACCT,1.66
5,AACTGGCTCG,0.991
6,ATCGGTATTG,0.931
7,ACGCCATCGG,0.979
8,GTAGTAATCG,1.07
9,TACACGTGGA,1.07
10,GTGAGGGCGC,0.962
11,GTTCAAGTGT,0.998
12,CGTGCACTGC,1.13
13,AGCTCATCGG,0.981
14,TCATTAAAAG,1.01
15,GGAGTAATG,1.19
16,ACGTTAGGCT,1.05
17,AGTGGTGGAC,0.984
18,GTCTAATCGG,1
19,AAGATTGGGC,1.01
20,GTGCCGGTT,0.877
21,AAGACTTATG,0.99
22,AAGCTCCTGC,0.987
23,ATTGATTCAG,1.01
24,ACCTAAGTTT,1.05
25,TATTGCGCAC,1.12
26,GGCGGGCCGA,1

row,Sequence,switch fluorescence ratio
1,AATAATCCTT,0.974
2,TAGCTGTTGA,1.06
3,ATCTTTTTTA,1.02
4,TATCGCGGAT,0.987
5,TTGGCTCTAG,1.03
6,ATGTTGATGG,0.999
7,CTGCTGTTTT,0.968
8,AACGGGGCAG,1
9,TAATGGCAAG,1.07
10,TTGTTATTAT,0.974
11,TATTTGGCAG,0.973
12,AGAGAAGGG,0.986
13,GAGAAACACA,1.02
14,GACTACTCCT,1.16
15,GGGAAGGGCT,0.961
16,CAACTAATTC,0.975
17,CGACGGAGGA,1.31
18,TTTTTGCCAA,1.08
19,TTTTCCCACT,1.08
